Assay results published in article PMC4336329 (PLoS ONE, 2015).
The campaign covered roughly 310,000 compounds. About 14,000 (4.5%) showed an effect of 50% or more. The effect is printed as a negative number. This is one part of the list.

The compounds below were run against human ether-à-go-go-related gene (hERG) potassium channel (human, UniProt Q12809) (assay: primary screen, population patch clamp on CHO cells stably expressing hERG).
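Also: peak tail current of the secondary pulse compared with the same well before compound.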

human ether-à-go-go-related gene (hERG) potassium channel, sequence (Q12809 whole entry, looked up): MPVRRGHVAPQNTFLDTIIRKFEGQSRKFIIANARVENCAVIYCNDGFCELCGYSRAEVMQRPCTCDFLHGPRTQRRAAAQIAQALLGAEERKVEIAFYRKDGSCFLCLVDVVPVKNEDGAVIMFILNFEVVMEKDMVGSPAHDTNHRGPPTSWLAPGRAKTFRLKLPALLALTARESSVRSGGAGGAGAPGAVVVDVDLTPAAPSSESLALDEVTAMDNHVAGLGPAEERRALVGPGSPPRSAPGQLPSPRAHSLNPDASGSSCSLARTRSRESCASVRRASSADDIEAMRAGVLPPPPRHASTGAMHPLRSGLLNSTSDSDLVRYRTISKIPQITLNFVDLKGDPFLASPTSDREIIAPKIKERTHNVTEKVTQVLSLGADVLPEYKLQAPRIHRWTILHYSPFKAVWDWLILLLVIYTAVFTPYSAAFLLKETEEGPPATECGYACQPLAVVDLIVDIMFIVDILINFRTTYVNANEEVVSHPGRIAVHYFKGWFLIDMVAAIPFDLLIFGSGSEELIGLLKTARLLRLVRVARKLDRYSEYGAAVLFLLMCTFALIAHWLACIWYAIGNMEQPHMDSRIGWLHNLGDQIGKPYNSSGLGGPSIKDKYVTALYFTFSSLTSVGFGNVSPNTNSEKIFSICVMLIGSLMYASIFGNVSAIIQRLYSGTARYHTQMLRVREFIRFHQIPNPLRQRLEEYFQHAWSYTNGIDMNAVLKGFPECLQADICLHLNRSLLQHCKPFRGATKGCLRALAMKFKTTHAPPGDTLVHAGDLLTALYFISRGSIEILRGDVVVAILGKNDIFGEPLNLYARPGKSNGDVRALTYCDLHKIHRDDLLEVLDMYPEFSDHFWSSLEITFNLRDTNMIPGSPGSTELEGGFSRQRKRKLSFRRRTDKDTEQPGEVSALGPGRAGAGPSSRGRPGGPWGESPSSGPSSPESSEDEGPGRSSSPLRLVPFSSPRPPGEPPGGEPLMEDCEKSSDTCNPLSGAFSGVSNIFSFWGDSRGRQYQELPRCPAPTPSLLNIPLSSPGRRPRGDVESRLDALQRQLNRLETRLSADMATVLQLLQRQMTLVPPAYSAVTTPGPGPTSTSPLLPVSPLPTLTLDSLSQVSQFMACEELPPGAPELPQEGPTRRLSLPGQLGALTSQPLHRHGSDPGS

SMILES	hERG current change (%, negative = inhibition) at 10uM
COc1cc(NC(=O)C2CCCO2)c(OC)cc1NC(=O)c1ccccc1 (centres unmarked)	8.17%
CCOc1cc(C)c(C(C)C)cc1S(=O)(=O)NCc1ccccn1	0.243%
CC(=O)c1ccc(NC(=O)c2ccc(C)c(Br)c2)cc1	10.1%
Cc1c(-c2ccccc2)cnc2c(C)cccc12	22%
CCC(C)NC(=O)C1CCN(S(=O)(=O)c2ccc(OC)cc2)CC1 (centres unmarked)	19.1%
COc1ccc(Cl)cc1S(=O)(=O)N1CCCC(C(=O)N2CCOCC2)C1 (centres unmarked)	-69.4%
O=C(NC12CC3CC(CC(C3)C1)C2)N1CCN(c2ncccn2)CC1	25.5%
COc1ccc(N2Cc3ccc(C(=O)N/N=C\c4ccc(O)cc4O)cc3C2)cc1	23.4%
CCOC(=O)c1[nH]c(C)c(C(=O)N2CCc3ccccc32)c1C	-12.6%
CCOC(=O)c1sc(NC(=O)CSc2ncn[nH]2)c(C#N)c1C	-12.3%
COc1ccc(C(=O)OCC(=O)NC23CC4CC(CC(C4)C2)C3)c(OC)c1OC	-37.2%
CC(=O)c1ccc(N2CCN(C(=S)Nc3ccccc3)CC2)cc1	-1.51%
CC(C)(C)c1ccc(NC(=O)COC(=O)c2ccc3ncsc3c2)cc1	5.01%
CC(C)c1c(C(=O)N/N=C/c2ccc(-c3ccccc3)cc2)nnn1-c1nonc1N	26.6%
C/C=C/c1ccc(OCCCCOc2ccc(OC)cc2)c(OC)c1	-7.09%
COc1cccc(CNC(=O)c2ccccc2NC(=O)C2=C(C)OCCS2)c1	-0.591%
Cc1oc2ccc(NS(=O)(=O)c3ccc(C(C)(C)C)cc3)cc2c1C(=O)Nc1ccccc1	1.72%
CCC(=O)c1ccc(N2CCN(S(=O)(=O)c3ccccc3)CC2)c(F)c1	11.7%
COCc1c(C(=O)N2CCN(c3ccc(C(F)(F)F)cn3)CC2)oc2ccccc12	-23.7%
CCSc1ccccc1C(=O)Nc1nc2ccccc2c(=O)[nH]1	17.7%
N#Cc1ccc(NC(=O)c2cc(-c3cccs3)on2)cc1	21.8%
Cc1nn(-c2ccc(Cl)cc2)c2sc(C(=O)N3CCN(c4ccccn4)CC3)cc12	17.2%
O=C(CCc1nnc(Cc2c[nH]c3ccccc23)o1)NC(C1CC1)C1CC1	13.5%

SMILES	hERG current change (%, negative = inhibition) at 10uM
NC(=O)CS(=O)(=O)c1nc2ccccc2n1Cc1ccccn1	12.1%
C=CC[n+]1c(-c2ccc(OCC)cc2)csc1NNC(=O)Nc1ccccc1.[Br-]	9.29%
CC(=O)N1CCc2cc(S(=O)(=O)NCCCOC(C)C)ccc21	13.2%
CC(=O)c1cn(CC(=O)NCc2ccc3c(c2)OCO3)c2ccccc12	-3.61%
CC1Sc2ccc(S(=O)(=O)CCC(=O)NC(C)c3ccccc3)cc2NC1=O (centres unmarked)	10.9%
CCC(C(=O)NCc1ccco1)N(C(=O)CNS(=O)(=O)c1ccccc1)c1ccc(OC)cc1 (centres unmarked)	-7.78%
CC(=O)Nc1ccc(-c2csc(NC(=O)C3=COCCO3)n2)cc1	-13.3%
Fc1ccc(COc2ccccc2-c2ccnc3ncnn23)cc1	-6.51%
COc1ccc(-c2noc(CNC(=O)CCN3C(=O)[C@H]4CC=CC[C@H]4C3=O)n2)cc1	5.29%
Cl.O=C(NCCCN1CCOCC1)c1cccnc1	8.8%
COc1ccc(N2CCN(C(CNC(=O)COc3ccccc3)c3ccco3)CC2)cc1 (centres unmarked)	-67%
CCC(=O)Nc1nc2ccccc2n1Cc1ccc(C)cc1	14%
CCC(C(=O)OC)n1cnc2scc(-c3ccc(C)cc3)c2c1=O (centres unmarked)	4.69%
O=S(=O)(NCC1CCCO1)c1ccc(Cl)c(C(F)(F)F)c1 (centres unmarked)	-10.1%
O=C(Cc1n[nH]c(=O)c2ccccc12)Nc1ccc(-c2nnc3n2CCCCC3)cc1	-4.77%
COc1ccc(S(N)(=O)=O)cc1C(=O)OCCCOC(=O)c1cc(S(N)(=O)=O)ccc1OC	4.29%
CCCC(=O)NCc1nc2ccccc2n1C	-2.04%
COc1ccc(/C=N/c2sc3c(c2C#N)CCN(Cc2ccccc2)C3)c(O)c1	10.2%
COc1ccc(Cl)cc1C(=O)NNC(=O)c1cccc([N+](=O)[O-])c1	2.28%
NC(=O)C1CCN(CC(=O)Nc2ccccc2Sc2ccc(Cl)cc2)CC1	-53.7%
CC(C)(CNS(=O)(=O)c1ccc(F)cc1)CNS(=O)(=O)c1ccc(F)cc1	2.69%
COc1ccccc1N(CC(O)Cn1ccnc1C)S(=O)(=O)c1ccccc1 (centres unmarked)	10.1%
CCc1ccc2[nH]c(=O)c(CN(Cc3ccccc3OC)C(=O)Nc3ccccc3OC)cc2c1	3.47%

SMILES	hERG current change (%, negative = inhibition) at 10uM
COC(=O)c1oc2c(c1C)C1(CCC2)SCCS1	-20%
COc1ccc(N(C(=O)CNC(=O)c2ccco2)C(C(=O)NCC2CCCO2)c2ccccc2)cc1 (centres unmarked)	16%
COc1ccc(OCc2nc(C#N)c(NCCCn3ccnc3)o2)cc1	-43.4%
CN1CCN(C(=O)COc2ccc(C(C)(C)C)cc2Br)CC1	-27.8%
O=C(O)CSc1c2c(nc3cc(C(=O)N4CCOCC4)ccc13)CCCC2	6.31%
O=C(Nc1ccc(Cl)cc1)N1CC=CCC1	12.3%
O=[N+]([O-])C(/C=C(\Cl)[N+](=O)[O-])=C1N(Cc2ccc(Cl)nc2)CCN1Cc1ccc(Cl)nc1	-13%
Cc1ccc(-n2nc(C)c3c2OC(N)=C(C#N)C3c2ccc(C)o2)cc1 (centres unmarked)	6.4%
CCN(CC)CCCC(C)NC(=O)c1cc(=O)c2ccccc2o1.Cl (centres unmarked)	0.954%
Cc1sc2ncnc(SCC#N)c2c1C	2.88%
N/C(=N\OC(=O)c1cccc(Cl)c1)c1ccncc1	-19.4%
Cc1nc2cc(NC(=O)c3cccc(S(C)(=O)=O)c3)ccc2o1	11.9%
N#Cc1ccc(C(=O)NC2CCCCCCC2)cc1	-30.8%
COc1cc(/C=C2\C(=N)N3N=CSC3=NC2=O)ccc1OS(=O)(=O)c1ccccc1[N+](=O)[O-]	-2.22%
CCOc1cc(/C=C2/C(=O)ON=C2C)ccc1O	9.1%
C=CC1CN(CC(=O)OC)S(=O)(=O)c2ccccc21 (centres unmarked)	-1.58%
COc1nc(C)cc(C)c1S(=O)(=O)c1ccccc1	20.7%
CCN(CC)c1ccc(N=C2C(=O)Nc3ccccc32)cc1	-46.7%
CC(Sc1nc(N)cc(N)n1)C(=O)Nc1ccc(N2CCOCC2)cc1 (centres unmarked)	17.8%
C=CCOC(=O)C1=C(C)OC(N)=C(C#N)C1c1ccoc1 (centres unmarked)	10.7%
Cn1ccnc1SCC(=O)Nc1cccc2ccccc12	-4.5%
Oc1c(Cl)cc(Cl)cc1/C=N/c1ncn[nH]1	12.4%
COc1ccc(-c2ccc(SCC(=O)NCc3ccc4c(c3)OCO4)nn2)cc1OC	-1.22%

SMILES	hERG current change (%, negative = inhibition) at 10uM
CCOc1cc(CNCc2cccs2)cc(Br)c1OCC.Cl	-4.03%
Cc1cccc2cc(CN(Cc3nnnn3Cc3ccco3)C3CCCC3)c3nnnn3c12	7.99%
Cl.O=S(=O)(NCCN1CCOCC1)c1cccc(C(F)(F)F)c1	5.32%
O=C(NCc1ccc(F)cc1)c1cccs1	9.12%
CCCC[n+]1c(C)sc2cc(OC)ccc21.[I-]	20%
Cc1ccnc(NC(=O)CCC(=O)N(CC(=O)NC2CCCCC2)c2ccc3c(c2)OCO3)c1	11.5%
COC(=O)C1CCCN1C(=O)COc1ccc(Br)cc1Cl (centres unmarked)	9.21%
COc1ccc(S(=O)(=O)N(C)CC(=O)Nc2ccc3c(c2)OCCO3)cc1OC	11.1%
O=C(CSc1nc2ccc(Cl)cc2[nH]1)NC1CCCC1	13.5%
COCCCn1c(SCc2cccc(C(F)(F)F)c2)nc2cc(OC)c(OC)cc2c1=N	9.07%
COc1cc(OC)c(C(=O)NCC(c2cccs2)N(C)C)cc1OC (centres unmarked)	13.7%
COc1ccc(/C=N/N=C(/N)N[N+](=O)[O-])c(OC)c1	-7.87%
C=CCNc1nc(C(=O)OCC(=O)c2cccc(Br)c2)cs1	-16.3%
Cc1ccc(S[C@@H](CCN2CC[C@H](C)CCC2=O)c2ccccc2)cc1	-15.4%
CC(=NCc1cccnc1)c1c(O)n(Cc2ccccc2)c(=O)[nH]c1=O	-44.9%
CCOC(=O)N1CCC(NC(=O)CSCc2nc(-c3ccccc3Cl)oc2C)CC1	-19.5%
Cc1sc(NC(=O)/C=C/c2ccco2)c(C(=O)O)c1C	2.85%
Cc1ccc(NC(=O)C2CCN(C(=O)NC3CCCCC3)CC2)c(C)c1	-4.41%
O=C(NCc1ccccc1)c1c[nH]c2ccccc2c1=O	10.6%
O=C(NCCCN1CCOCC1)c1cccc(S(=O)(=O)N2CCOCC2)c1	8.97%
